Assay results: patent publication US20250002557A1

Experiments:
VEGF-A 121 [1] = biological target: VEGF-A 121 (UniProt P15692); assay: ELISA, coated VEGF-A 121, anti-human Fc-HRP
VEGF-A 121 [2] = biological target: VEGF-A 121 (UniProt P15692); assay: blocking ELISA, VEGF-A 121-His to coated VEGFR2-Fc
VEGF-A165 = VEGF-A165 (UniProt P15692); assay: ELISA, coated VEGF-A 165, anti-human Fc-HRP

## Eylea (Fc fusion)
VEGF-A 121 [1]
  EC50: 0.0719 µg/mL and 0.719 nM [lines of one column]
VEGF-A 121 [2]
  EC50: 0.955 µg/mL and 9.55 nM [lines of one column]
VEGF-A165
  EC50: 0.0174 µg/mL and 0.174 nM [lines of one column]

For part of its entries the source gives two or more results. Only these are listed. The source may hold further records. The records of an entry appear to be repeats (runs, samples, wells or individuals).
